# From paper PMC4336329 (PLoS ONE, 2015)
# The campaign covered roughly 310,000 compounds. About 14,000 (4.5%) showed an effect of 50% or more. Effects have a minus sign here. Some of the results follow.
# Molecular target: human ether-à-go-go-related gene (hERG) potassium channel (human, UniProt Q12809)
# Experiment: primary screen, population patch clamp on CHO cells stably expressing hERG
# 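Further: peak tail current of the secondary pulse compared with the same well before compound.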
# Chain of human ether-à-go-go-related gene (hERG) potassium channel (Q12809 whole entry, looked up): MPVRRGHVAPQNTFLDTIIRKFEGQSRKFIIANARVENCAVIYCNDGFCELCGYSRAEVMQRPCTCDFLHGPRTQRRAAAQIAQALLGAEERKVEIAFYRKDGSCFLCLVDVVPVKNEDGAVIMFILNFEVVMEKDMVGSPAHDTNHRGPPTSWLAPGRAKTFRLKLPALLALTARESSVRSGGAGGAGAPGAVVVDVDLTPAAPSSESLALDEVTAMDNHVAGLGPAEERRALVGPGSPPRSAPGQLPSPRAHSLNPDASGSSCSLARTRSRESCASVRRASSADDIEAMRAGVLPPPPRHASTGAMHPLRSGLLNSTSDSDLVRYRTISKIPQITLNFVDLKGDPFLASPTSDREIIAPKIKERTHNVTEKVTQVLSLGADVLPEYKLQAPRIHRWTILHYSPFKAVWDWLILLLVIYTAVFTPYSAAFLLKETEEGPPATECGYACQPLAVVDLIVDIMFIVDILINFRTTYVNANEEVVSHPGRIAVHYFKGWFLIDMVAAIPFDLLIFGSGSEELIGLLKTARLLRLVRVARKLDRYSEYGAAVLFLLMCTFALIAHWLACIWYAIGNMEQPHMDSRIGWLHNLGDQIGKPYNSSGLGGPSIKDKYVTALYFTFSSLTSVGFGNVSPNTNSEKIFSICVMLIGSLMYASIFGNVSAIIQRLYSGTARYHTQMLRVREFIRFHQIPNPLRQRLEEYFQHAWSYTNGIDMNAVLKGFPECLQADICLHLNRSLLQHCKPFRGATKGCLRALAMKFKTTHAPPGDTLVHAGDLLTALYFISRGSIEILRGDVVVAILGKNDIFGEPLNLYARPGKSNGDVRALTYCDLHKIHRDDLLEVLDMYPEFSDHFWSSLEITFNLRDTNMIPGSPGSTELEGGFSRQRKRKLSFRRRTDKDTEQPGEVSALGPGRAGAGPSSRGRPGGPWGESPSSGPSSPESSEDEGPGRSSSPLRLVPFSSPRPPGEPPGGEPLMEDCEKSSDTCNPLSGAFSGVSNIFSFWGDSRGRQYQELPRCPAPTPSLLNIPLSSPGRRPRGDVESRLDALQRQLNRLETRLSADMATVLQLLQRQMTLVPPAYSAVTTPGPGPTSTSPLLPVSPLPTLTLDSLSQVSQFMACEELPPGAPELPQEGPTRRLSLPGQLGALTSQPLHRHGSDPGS
row,SMILES,"hERG current change (%, negative = inhibition) at 10uM [%]"
1,O=C(N/N=C/c1ccncc1)c1cc(-c2ccc(Br)s2)[nH]n1,-12.4
2,Cc1cc(C)n(-c2cc(-c3ccccc3)nc(C)n2)n1,0.36
3,CCSc1nnc(CCNC(=O)OC(C)(C)C)o1,7.7
4,O=C(CCCN1C(=O)c2cccnc2C1=O)Nc1ccc(Br)cc1,-1.96
5,CN1CCN(CC#CC2(O)CCCCC2)CC1,6.31
6,Cn1c(CSCc2ccc(F)cc2)n[nH]c1=S,19.8
7,Cc1cc(NC(=O)CSc2nc(=O)n3cccc(C)c3n2)no1,-4.2
8,Cc1nc2sc3c(O)cc(=O)[nH]c3c2c(C)c1C,0.113
9,CC(=O)NC1(c2ccccc2)CCN(CC(=O)N2CCC(C)CC2)CC1,26.5
10,COc1ccc(NC(=O)CN(C)C(=O)/C=C/c2cn(-c3ccccc3)nc2-c2ccc(C)cc2)cc1,13.8
11,C=CCn1c(SCC(=O)Nc2ccccc2OC)nnc1-c1ccccn1,-32.1
12,Cc1cc(C(=O)CCC(=O)N2CCN(c3ccccc3F)CC2)c(C)s1,-30.3
13,CCCc1nnc(NC(=O)CN2CCOCC2)s1.Cl,11.3
14,Cc1cc(=O)oc2cc(OCC#N)ccc12,11.6
15,CC(=O)NCCN=Cc1sc2ccccc2c1O,9.56
16,O=S(=O)(F)c1ccc2nc(-c3cccc(Sc4ccccc4)c3)cc(Cl)c2c1,10.4
17,Cc1ncc([N+](=O)[O-])n1Cc1ccc(Br)cc1,-26.2
18,COc1ccc(NC(=O)Nc2cc(C(=O)O)ccc2N2CC3CC(C2)c2cccc(=O)n2C3)c(OC)c1 (stereo not drawn),8.14
19,O=c1c(C/C=C/c2ccccc2)c(O)ccn1Cc1ccc(Cl)cc1Cl,24.2
20,CCCCCC(=O)Nc1cccc(C2=NOC3(C2)C[C@H](C(N)=O)N(C(=O)[C@H]2CCC(=O)N2)C3)c1 (stereo partly drawn),19.2
21,O=C(CS(=O)(=O)c1ccccc1)NCc1ccco1,13.2
22,CC(=O)Nc1ccc(NC(=O)CSc2ccc3nnc(-c4ccccn4)n3n2)cc1,17.7
23,Cc1ccc(OCCOCCN2CCCC2)c(Br)c1.O=C(O)C(=O)O,-24.7

row,SMILES,"hERG current change (%, negative = inhibition) at 10uM [%]"
1,CCOc1ccccc1C1CC(=O)NC2=C1C(=O)CCC2 (stereo not drawn),13.6
2,Cn1cccc1Cc1nnc(SCC(=O)N2CCCCCC2)n1CCc1ccccc1,-5.44
3,CCc1ccccc1N(CC(=O)Nc1cccc(N(C)S(C)(=O)=O)c1)S(C)(=O)=O,-0.199
4,Cc1ccnc(NC(=O)c2ccc(Cl)c(S(=O)(=O)N3CCCCC3)c2)c1,-79.1
5,Cc1ccc(N2C(=O)N(CC(=O)Nc3ccc(C)c(C)c3[N+](=O)[O-])C(=O)C2C)cc1 (stereo not drawn),-1.46
6,C=CCCC(=O)N1CCC(Oc2cccc(C(=O)NCc3ccccn3)c2)CC1,-17.4
7,C[C@]12CC3CC(N)(C1)C[C@@](C)(C3)C2.Cl,-0.247
8,C/C=C(\C)C(=O)Nc1cccc(C2=NOC3(C2)C[C@H](C(N)=O)N(C(=O)CC#N)C3)c1 (stereo partly drawn),17
9,Cc1nnn(C23CC4CC(CC(C(=O)NN)(C4)C2)C3)n1,12.5
10,CN1CCC/C1=C1/C(=O)N(c2ccccc2)N=C1NC(=O)Nc1cccc(Cl)c1,16.1
11,CCC1(C)CN(S(=O)(=O)OCC(Cl)(Cl)Cl)C(=O)N1 (stereo not drawn),3.12
12,O=C(Nc1ccc(F)c(Cl)c1)C1CC(=O)n2c(nc3ccccc32)N1 (stereo not drawn),10.7
13,CCOc1cccc(N2C(=O)CC(NCc3ccc(S(N)(=O)=O)cc3)C2=O)c1 (stereo not drawn),-0.392
14,CSCC[C@H](NS(=O)(=O)c1ccc(C)cc1)C(=O)N1CCC(C(=O)N[C@@H](Cc2ccccc2)C(=O)O)CC1,-5.26
15,CCN1/C(=C/C(=O)c2ccco2)Sc2ccccc21,8.09
16,CCN(CC(=O)Nc1cccc(OC)c1)C(=O)c1cnc(Cl)c(Cl)c1,5.79
17,O=C(COC(=O)c1ccc(Br)cc1)NCCC1=CCCCC1,-4.48
18,Nc1nonc1-n1nnc(C(=O)N/N=C/c2cc(Br)ccc2O)c1CSC1=NCCS1,9.14
19,CCOc1ccc(N2C(=O)CC(N(CCc3ccc(OC)cc3)C(=O)/C=C/C(=O)O)C2=O)cc1 (stereo not drawn),41.8
20,Cc1cc(-c2nc(C)c(C(=O)NNC(=O)NC(C)C)s2)no1,2.44
21,COc1ccc2ccccc2c1C1NC(=O)NC(C)=C1[N+](=O)[O-] (stereo not drawn),0.527
22,Cc1cccc(OCC(=O)Nc2nnc(S(=O)(=O)N3CCC(C)CC3)s2)c1,-0.769
23,CC(=O)c1cc2c(cc1NC(=O)c1c(-c3ccccc3)noc1C)OCO2,13.7

row,SMILES,"hERG current change (%, negative = inhibition) at 10uM [%]"
1,CC(=O)N1CCc2cc(S(=O)(=O)NCCCN3CCN(Cc4ccccc4)CC3)ccc21,-16.6
2,Cc1cccc(NC(=O)N2CCC(NC(=O)c3ccccc3C)CC2)c1,-15.2
3,S=C(NCCN1CCOCC1)Nc1cccc2ccccc12,0.426
4,CN(C)c1nc(OCCNC(=O)Nc2ccccc2)nc(N2CCCCC2)n1,0.123
5,Cn1c(=NC(=O)c2cnccn2)sc2ccccc21,6.1
6,CCOC(=O)c1c(NC(=O)CSc2nccc(=O)[nH]2)sc(C)c1C,13.7
7,OC1CN=C2CCCc3c2n(c2ccc(Cl)cc32)C1 (stereo not drawn),-72.3
8,CCN1CCCC1CNC(=O)Cn1nc(C)n2nc(-c3ccccc3)cc2c1=O (stereo not drawn),-23.3
9,CCOc1ncccc1C(=O)OCC(=O)NCCc1ccccc1,6.79
10,COc1cccc(CN2CCN(Cc3nc(-c4cccs4)oc3C)CC2CCO)c1 (stereo not drawn),-57
11,c1ccc(N2CCN(C3CCSC3)CC2)cc1 (stereo not drawn),-5.5
12,Cc1cc(C)n(C(=O)CNC(=O)c2ccccc2Br)n1,18.6
13,Cc1[nH]c(C)c(S(=O)(=O)NCc2ccc(F)cc2)c1C(=O)N1CCCC1,14.2
14,COc1ccc(OCCNC(=O)C(c2ccccc2)c2ccccc2)cc1,2.86
15,COc1ccc(CN2CCCCC2C)cc1C (stereo not drawn),-18.8
16,COCCCNC(=O)C(=O)C1C(=O)Nc2ccccc21 (stereo not drawn),24.9
17,O=C(Nc1cc(S(=O)(=O)N2CCCCC2)ccc1Cl)c1ccc(F)cc1,-8.99
18,CSc1cccc(NC(=O)c2cnccn2)c1,-4.38
19,Cc1ccc(S(=O)(=O)NC(=O)Nc2ccc(F)c(F)c2)cc1,18.1
20,O=C(CCN1CCOCC1)Nc1ccccc1,12.3
21,Cc1c(-c2cccc(Cl)c2)nc2ccccc2c1C(=O)N1CCC2(CC1)OCCO2,-47.4
22,CC(C)CC(=O)N=C1SC2CS(=O)(=O)CC2N1CCc1ccccc1 (stereo not drawn),0.376
23,CC(=O)N1CCc2cc(N=NC3=C(O)CCCC3=O)ccc21,9.61

row,SMILES,"hERG current change (%, negative = inhibition) at 10uM [%]"
1,CCOC(=O)N1CCN(Cc2nc3c(c(=O)[nH]c(=O)n3C)n2CCCc2ccccc2)CC1,-37.5
2,COn1c(SCc2cccnc2)nc2ccccc2c1=O,-14.2
3,COC(=O)C1=C(C(=O)OC)[C@@H]2N(C)c3ccccc3[C@@]23C[C@@H](C(=O)OC)N(C(=O)C2CCC2)C3=N1,-29.7
4,CCCn1c(=O)c2c(C(F)(F)F)cc(-c3cccs3)nc2n(CCC)c1=O,6.84
5,O=P(OCC(F)(F)C(F)F)(N1CCOCC1)N1CCOCC1,4.48
6,O=C(NNc1nc2cc3c(cc2s1)OCCO3)c1ccccc1,-5.6
7,Cc1ccc(NC(=O)CCc2c(C)nc3ncnn3c2C)nc1,-11.3
8,Cc1oc(-c2cccc(Cl)c2)nc1CSCC(=O)O,14
9,CC1CN(C(=O)/C(=C/c2ccco2)NC(=O)c2ccccc2)CC(C)O1 (stereo not drawn),20.3
10,COc1ccc(NC(=O)C2CCN(C(=O)c3ccccc3)CC2)cc1OC,-17.6
11,CCOc1ccc(-n2c(N)c(C(=O)N3CCN(C)CC3)sc2=S)cc1,-51
12,CC1=NN(c2ccccc2)C(=O)/C1=C/N(C)C,6.17
13,COc1ccc(CCC(=O)Nc2ccc(OC)c(S(=O)(=O)N3CCCCC3)c2)cc1,-4.43
14,Cn1c(=O)[nH]c(=O)c2c1nc(NC1CCCC1)n2Cc1ccccc1,15.8
15,CCCc1cc(NCCCO)n2c(nc3ccccc32)c1C#N,-16.6
16,CCOc1ccccc1CN1CCN(C2CCN(c3ccccc3F)CC2)CC1CCO (stereo not drawn),-71.6
17,Cc1ccc(NC(=O)C(C)OC(=O)Cn2cnc3ccccc3c2=O)cc1 (stereo not drawn),-12.4
18,O=C(COC(=O)CN1C(=O)C2CCCCC2C1=O)NC1CCS(=O)(=O)C1 (stereo not drawn),3.9
19,O=C(NCC1CCCO1)c1csc2c1CCCCC2 (stereo not drawn),2.13
20,COc1cc(NC(=O)C2CCCN2S(=O)(=O)c2ccc3c(c2)CCC(=O)N3)cc(OC)c1 (stereo not drawn),-29.9
21,Cl.O=C(OCCN1CCCCC1)c1ccccc1F,9.94
